Source: PubChem BioAssay AID504832 (National Center for Advancing Translational Sciences (NCATS), 2011)
Values joined by “and” are separate entries in the source; they are usually repeats but may differ in a detail not shown here. Identical values can stand only once. Out of some 310,000 compounds screened, about 18,000 (5.8%) were called active. Inconclusive results, whose numbers are uncertain, are shown with a selection of clear calls. The call rests on the fitted dose curve; in most records, active means well fitted inhibition curve with a large enough effect; inconclusive means small, poorly fitted or top-dose-only effect, or another doubt; inactive means no such curve, though single readings can be large or run the other way. No potency is given beside an inconclusive call; the fits are too rough.
On the % scale 0 is the no-effect control and ±100 the full control effect; potency means the concentration at half of the fitted maximal effect; tags describe the fitted curve by direction and shape.

Assay: Primary qHTS for delayed death inhibitors of the malarial parasite plastid, 48 hour incubation
Conditions: P. falciparum luciferase growth in erythrocytes; series mostly up to 28.7 µM
Method in brief: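 Luciferase-expressing P. falciparum in infected erythrocytes (2% hematocrit, 0.1% parasitemia final) in RPMI 1640/0.5% Albumax were exposed to compound for 48 hours at 37 C, 5% CO2; growth read as luminescence.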
For `COc1cc2[nH]c(C(=O)N3CCC(Cc4ccccc4)CC3)cc2c(OC)c1OC`, the Potency was active: 3.29 µM. With `O=C(/C=C/c1ccco1)N1CCN(S(=O)(=O)c2cccs2)CC1` the Potency was inconclusive [inhibitor, single point]. With `O=C(OCC(=O)N1CCN(c2ccccc2)CC1)c1ccc[n+]([O-])c1` the activity change, negative = inhibition was inactive: 23.2% [at 5.75 µM]. In the case of `CCC(C)(C)NC(=O)CN(C(=O)c1ccc(N2CCCC2)nc1)c1ccc(F)cc1`, the Potency is reported as active: 4.15 µM. With `Cc1ccccc1Nc1nc(N)nc(COC(=O)c2ccc(S(=O)(=O)N(C)C)cc2)n1` the Potency was inconclusive [inhibitor, partial curve, poor fit]. In the case of `COc1ccc(NC(=O)CCN2CCN(S(=O)(=O)c3cc(Cl)ccc3OC)CC2)cc1`, the Potency is reported as inconclusive [inhibitor, single point]. For `COc1ccc(C2(C)NC(=O)N(Cc3cc(Cl)cc4c3OCOC4)C2=O)cc1OC` (centres undefined), the Potency was inconclusive [inhibitor, partial curve, poor fit]. For `CSc1cccc(NC(=O)CN(C)S(=O)(=O)c2cnc[nH]2)c1`, the Potency was “inactive”. For `CCN(CC(=O)NCc1ccc(Cl)cc1)CC(=O)Nc1ccc(C(N)=O)cc1`, the Potency was “inactive”. For `CCOC(=O)C1CCCN(C(=O)c2cc3nc(-c4cccc(OC)c4)cc(C(F)(F)F)n3n2)C1` (centres undefined), the Potency was active: 11.7 µM. For `CC(OC(=O)CCC(=O)c1cccs1)C(=O)NC1CCCCC1C` (centres undefined), the Potency was “inactive”. In the case of `O=C(Cc1ccccc1)Nc1nnc(-c2ccco2)s1`, the Potency is reported as “inactive”. For `CSCC(=O)Nc1ccc(F)c(Cl)c1`, the Potency was “inactive”. For `CCOC(=O)C1(CCOc2ccccc2)CCN(Cc2cc(OC)ccc2OC)CC1`, the Potency was inconclusive [inhibitor, single point]. For `COc1ccc(C(=O)COc2ccc(F)cc2)c(O)c1`, the Potency was “inactive”. In the case of `Cc1nc(CSc2ccccc2)cc(=O)[nH]1`, the Potency is reported as “inactive”. For `CCCCC(CCC(=O)Nc1ccc(C(=O)OC)cc1)C(=O)O` (centres undefined), the Potency was “inactive”. In the case of `COc1cccc(NC(=O)Cn2nnc(C(=O)Nc3ccccc3)c2N)c1`, the Potency is reported as inconclusive [inhibitor, full curve, poor fit]. With `O=C1/C(=C/c2ccc(O)cc2)COc2ccccc21` the Potency was “inactive”. For `CC1(C)Oc2ccc(C(=O)Nc3ccccc3F)cc2N(CC(=O)N2CCOCC2)C1=O`, the Potency was “inactive”. For `O=c1oc2ccccc2c2c1ncn2-c1ccccc1`, the Potency was “inactive”. For `COCCCN=C1NN=C(c2cc(C)n(-c3ccccc3)c2C)CS1`, the Potency was active: 10.4 µM. For `O=C1CCN(Cc2ccccc2)CCN1[C@H](CSc1ccccc1)c1ccccc1`, the Potency was inconclusive [inhibitor, partial curve, poor fit]. For `O=C(C[n+]1ccccc1)Nc1nc2ccccc2s1`, the Potency was “inactive”. With `CCOC(=O)CNC(=O)c1cnc(Nc2ccccc2OC)c2ccccc12` the Potency was inconclusive [inhibitor, single point]. In the case of `CC(C(=O)O)N1C(=O)C2C3c4ccccc4C(c4ccccc43)[C@@H]2C1=O` (some centres undefined), the activity change, negative = inhibition is reported as inactive: 0.39% [at 0.00184 µM]. For `CSc1ccccc1NC(=O)c1cc(-c2cccs2)on1`, the Potency was “inactive”. For `CC(C)(C)c1cc(NCc2ccccn2)n2ncc(-c3ccc(Cl)cc3)c2n1`, the Potency was active: 3.29 µM. With `Cc1cccc(Sc2ccc([N+](=O)[O-])cc2[N+](=O)[O-])n1` the Potency was inconclusive [inhibitor, partial curve]. In the case of `O=C1CN(C(=O)CSc2nc3ccccc3n2CCc2ccccc2)c2ccccc2N1`, the Potency is reported as inconclusive [inhibitor, single point]. In the case of `COC(=O)c1ccc(-c2sc3nc(N4CCOCC4)c4c(c3c2N)CCCC4)o1`, the Potency is reported as “inactive”. For `Cc1ccc2oc(=O)n(CCOc3ccccc3C)c2c1`, the Potency was active: 2.62 µM. For `COc1cc(Cl)ccc1OCc1cc(C(=O)N[C@H]2CCCCNC2=O)no1`, the Potency was “inactive”. With `COc1cccc2sc(NN)nc12` the Potency was “inactive”. With `COC(=O)c1cc2ccsc2n1Cc1nc(-c2ccc(OC)cc2)oc1C` the Potency was inconclusive [inhibitor, single point]. With `CC(C)CNC1CCS(=O)(=O)C1` (centres undefined) the Potency was “inactive”. With `COC(=O)c1ccccc1NC(=O)COC(=O)c1ccccc1N=Nc1ccc(N(C)C)cc1` the Potency was inconclusive [inhibitor, single point]. In the case of `COc1ccccc1NC(=O)CSc1nc2ccccc2cc1Cc1ccccc1`, the Potency is reported as inconclusive [inhibitor, partial curve, poor fit]. For `Cc1ccc(C)c(N=Cc2ccc(-c3ccc([N+](=O)[O-])cc3)o2)c1`, the Potency was inconclusive [inhibitor, single point]. With `COc1ccc(NC(=O)CSc2nccn2-c2ccccc2)c(OC)c1` the Potency was inconclusive [inhibitor, single point]. For `CC1(C)Cc2c(ccc3ccccc23)/C(=C/C#N)N1`, the Potency was “inactive”. In the case of `COc1ccc(-c2c(C(F)(F)F)nn(C)c2NC(=O)c2cccnc2)cc1`, the Potency is reported as inconclusive [inhibitor, single point]. In the case of `COc1ccc(C2C(C(=O)N3CCOCC3)=C(C)NC3=C2C(=O)CC(C)(C)C3)c(OC)c1` (centres undefined), the Potency is reported as inconclusive [inhibitor, partial curve, poor fit]. In the case of `Cc1ccc(C(=O)C(C)OC(=O)Cn2cnc3c2c(=O)n(C)c(=O)n3C)cc1` (centres undefined), the Potency is reported as inconclusive [inhibitor, single point]. In the case of `COc1ccc(-c2cc(OC)c3c(C)oc(C)c3c(=O)c2)cc1OC`, the Potency is reported as active: 4.65 µM. With `Cc1ccccc1-n1c(SCc2ccccn2)nc2n[nH]c(C)c2c1=N` the Potency was inconclusive [inhibitor, single point]. With `Cc1ccc(NC(=S)N(Cc2ccco2)C2CCN(C(C)C)CC2)cc1` the Potency was inconclusive [inhibitor, single point]. In the case of `CNC(=O)c1c(NC(=O)c2ccc(S(=O)(=O)N3CCCC3)cc2)sc2c1CCN(C(C)C)C2`, the Potency is reported as active: 2.62 µM. With `COCCN(Cc1cc2cc(C)cc(C)c2nc1Cl)C(=O)Nc1ccccc1` the Potency was inconclusive [inhibitor, single point]. For `COc1cc(/C=N/NC(=O)CCN2CCCCC2)ccc1O`, the Potency was “inactive”. With `O=C(COc1ccc(Cl)cc1)NCc1nnc(SCC(=O)NC2CCCC2)o1` the Potency was inconclusive [inhibitor, full curve, poor fit]. For `Cc1ccccc1-c1nc(CN2CCC(C(=O)NCc3cccnc3)CC2)c(C)o1`, the Potency was inconclusive [inhibitor, partial curve, poor fit]. For `CCOc1ccc(N(CC)C(=O)COc2cc(=O)n(CC)c3ccccc23)cc1`, the Potency was inconclusive [inhibitor, single point]. With `COc1ccc2c(c1OC)CN1CCc3cc4c(cc3[C@H]1C2)OCO4` the Potency was active: 2.87 µM and active: 3.7 µM. With `Nc1nc(F)nc2c1ncn2[C@@H]1O[C@H](CO)[C@@H](O)[C@@H]1O` the Potency was “inactive”. With `CN(C)c1ccc(N=Cc2nc(-c3ccccc3)oc2O)cc1` the Potency was inconclusive [inhibitor, single point]. With `Cc1cc(N2C(=O)C(O)=C(C(=O)c3ccc(C)o3)C2c2ccc([N+](=O)[O-])cc2)no1` (centres undefined) the Potency was “inactive”. With `Cc1ccc(-n2c(C)cc(/C=N/NC(=O)CN(c3ccc(C)cc3C)S(C)(=O)=O)c2C)cc1` the Potency was active: 11.7 µM. For `COc1ccc(-n2c(N)c(C(=O)NCc3ccco3)c3nc4ccccc4nc32)cc1`, the Potency was inconclusive [inhibitor, partial curve, poor fit]. With `O=C(NCCS(=O)(=O)N1CCN(c2ccccc2F)CC1)C1CC(=O)N(c2ccccc2)C1` (centres undefined) the Potency was “inactive”. With `CCOc1ccc2nc(N(CCN(CC)CC)C(=O)/C=C/c3cccs3)sc2c1` the Potency was inconclusive [inhibitor, single point]. With `CCN(CC)S(=O)(=O)c1ccc(NC(=O)C2c3ccccc3Oc3ccccc32)cc1` the Potency was inconclusive [inhibitor, partial curve]. In the case of `COc1cccc2c1-c1c(C(=O)O)cccc1C2=O`, the Potency is reported as inconclusive [inhibitor, full curve, poor fit]. With `Cc1ccc(C)c(S(=O)(=O)N2CCN(C(=O)CCNS(=O)(=O)c3ccc(C)c(C)c3)CC2)c1` the Potency was inconclusive [inhibitor, partial curve, poor fit]. For `CN(Cc1ccc(F)cc1)C(=O)C(Cc1ccccc1)NC(=O)c1ccccc1` (centres undefined), the Potency was inconclusive [inhibitor, single point]. In the case of `OC(CNCCc1ccccc1)COc1ccc(OCC(O)CNCCc2ccccc2)cc1` (centres undefined), the Potency is reported as active: 1.65 µM. In the case of `COc1ccc(C2c3c(ncn(CCCO)c3=N)Oc3ccc4ccccc4c32)cc1` (centres undefined), the Potency is reported as active: 11.7 µM. With `Cc1ccc(CN2C(=O)N/C(=C\c3ccc(-c4ccc(C(=O)O)cc4C)o3)C2=O)cc1` the Potency was inconclusive [inhibitor, single point]. With `S=c1[nH]nc(-c2ccn[nH]2)n1-c1ccccc1Cl` the Potency was “inactive”. With `O=C(NCc1ccncc1)c1ccc(NS(=O)(=O)c2cccc([N+](=O)[O-])c2)cc1` the Potency was “inactive”. For `CCOP(=O)(OCC)C(NC(=O)Nc1ccc(C)c(Cl)c1)c1ccccc1` (centres undefined), the Potency was inconclusive [inhibitor, single point]. With `Cc1cc(NC(=O)CSCCO)no1` the Potency was “inactive”. In the case of `Cc1oc(-c2cccs2)nc1CN1CCN(CC(C)C)C(CCO)C1` (centres undefined), the Potency is reported as “inactive”. For `CCOCc1c(C(=O)NC2=Nc3ccccc3NC(CC)=C2C(=O)OCC)oc2ccccc12`, the Potency was inconclusive [inhibitor, single point].
